In PubChem BioAssay AID1345083 (National Center for Advancing Translational Sciences (NCATS), 2018):
Out of some 94,000 compounds screened, about 6,200 (6.6%) were called active. The shares of active, inactive and inconclusive entries below differ from those in the screen. Calls come from the whole dose curve; as a rule, active = well fitted inhibition curve with a large enough effect; inconclusive = small, poorly fitted or top-dose-only effect; inactive = flat fitted curve, though single readings scatter. A potency beside an inconclusive call is a rough fit, not a confirmed value.

assay: Cytotoxic Profiling in HEK 293 Cell Line of Diverse Libraries Using Quantitative High-Throughput Screening; settings: HEK 293 viability, ATP luminescence (CellTiter-Glo), 48-72 h; activity change, negative = cytotoxicity: at 115 µM (top of the series) unless noted; series mostly up to 115 µM; note: nearly all actives have a fitted effect of over 60% in size
In short: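 qHTS cytotoxicity; HEK 293, 250 cells/well; compound pinned; 48 or 72 hr, 37 degree Celsius, 5% CO2, 95% humidity; CellTiter-Glo, 10 min RT; luminescence (ATP).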
% is set by controls: 0 for no effect and ±100 for the full control effect; potency is the fitted concentration of half-maximal effect; tags give direction and shape of the fitted curve.

Structure (SMILES) | Potency | activity change, negative = cytotoxicity | outcome
CSCc1noc(CNC(=O)CC(c2ccccc2)c2ccccc2Cl)n1 (stereo not given) | inconclusive: 39.8 µM [inhibitor, full curve, poor fit] | – | –
COc1ccc(OCc2nc(C)c(CCO)c(=O)n2CC(=O)N(C)c2cccc(C)c2)cc1 | inconclusive: 50.1 µM [inhibitor, partial curve, poor fit] | – | –
O=C1CC(c2noc(-c3ccc(F)c(Cl)c3)n2)CN1c1ccc(F)cc1 (stereo not given) | inconclusive: 70.8 µM [inhibitor, partial curve, poor fit] | – | –
CC(C)NC(=O)N1CCOc2ccc(CCC(=O)NCCc3cccnc3)cc2C1 | – | inactive: -19.6% | –
CCCCNC(=O)CC1CCN(c2ccnc(NCC)n2)CC1 | inconclusive: 39.8 µM [inhibitor, partial curve, poor fit] | – | –
O=C(Nc1ccon1)[C@@H]1C[C@@H](c2ccc(F)cc2)N([S+](=O)([O-])c2ccccc2)C1 | inconclusive: 112 µM [inhibitor, partial curve, poor fit] | – | –
Cc1ccc(NC(=O)N2CCCC(c3noc(COc4ccccc4F)n3)C2)c(C)c1 (stereo not given) | inconclusive: 89.1 µM [inhibitor, single point] | – | –
COc1ncccc1Nc1cnc2ccc(-c3ccc(F)cc3)nn12 | inconclusive: 22.4 µM [inhibitor, full curve] | – | –
COC(=O)N1CC(N2C(=O)c3c(c(C)nn3-c3ccccc3)C2C(C)C)C1 (stereo not given) | inconclusive: 79.4 µM [inhibitor, partial curve] | – | –
Cc1ccccc1CN1CCCC(COc2ccccc2C(=O)N2CCCC2)C1 (stereo not given) | inconclusive: 79.4 µM [inhibitor, single point] | – | –
c1ccc(-c2nc(-c3ccc(OC4CNC4)cc3)no2)cc1 | inconclusive: 22.4 µM [inhibitor, full curve, poor fit] | – | –
COCCNC(=O)CCc1c(C)nn(-c2ccc(OC)cc2)c1Oc1ccccc1F | inconclusive: 89.1 µM [inhibitor, single point] | – | –
O=C1NC2(CCCN(Cc3ccccc3C(F)(F)F)C2)COc2ccccc21 (stereo not given) | inconclusive: 50.1 µM [inhibitor, partial curve, poor fit] | – | –
O=C(c1ccc(C(F)(F)F)cc1)N1CCC(C(=O)N2CCC(N3CCOCC3=O)CC2)CC1 | inconclusive: 31.6 µM [inhibitor, partial curve, poor fit] | – | –
CCN(CC)C1CCOC2(CCN(C(=O)c3ccncc3)CC2)C1 (stereo not given) | – | inactive: -7.62% | –
Cc1ccc(N2CC(Cc3ccccc3)N(C(=O)c3ccnn3C)CC2=O)cc1 (stereo not given) | – | inactive: -1.24% | –
Cc1c(C(C)NC(=O)Cc2c[nH]c3ccccc23)cnn1-c1ccccn1 (stereo not given) | inconclusive: 89.1 µM [inhibitor, single point] | – | –
O[C@@H]1CC(CNCc2cccc(Cl)c2)(COc2ccccc2)C[C@@H]1O (stereo not given in full) | active: 100 µM | – | –
O=C(CNC(=O)c1ccc(-c2cnc3ccccc3c2)cc1)NCc1ccccc1F | inconclusive: 22.4 µM [inhibitor, partial curve, poor fit] | – | –
CCS(=O)(=O)c1ccc2oc([C@H]3CCN(Cc4cccc(Cl)c4)C3)nc2c1 | active: 44.7 µM | – | –

Structure (SMILES) | Potency | activity change, negative = cytotoxicity | outcome
Cc1oc(C(O)c2ccccc2)nc1C(=O)Nc1ccc2c(c1)NC(=O)CO2 (stereo not given) | inconclusive: 89.1 µM [inhibitor, partial curve] | – | –
O=C1N(c2ccc(F)cc2)CCOC12CCN(Cc1ccc3[nH]ccc3c1)CC2 | inconclusive: 112 µM [inhibitor, single point] | – | –
COc1ccc(-c2cnc3n2CC(C(=O)N2CCCCC2)CC3)cc1 (stereo not given) | inconclusive: 79.4 µM [inhibitor, partial curve, poor fit] | – | –
Cc1ccc(C(=O)N2CCN(C(=O)c3nnn4c3COC(c3ccc(F)cc3)C4)CC2)cc1C (stereo not given) | active: 44.7 µM | – | –
O=C(NCc1ccccc1F)c1nc2sccn2c1-c1ccc(C(F)(F)F)cc1 | active: 31.6 µM | – | –
O=C(c1ccc(F)cc1)N1CCn2c(nn(-c3ccc(F)cc3)c2=O)C1 | – | inactive: -3.26% | –
COc1ccc(CCNC(=O)Cn2ccn3nc(-c4ccc(F)cc4)c(CO)c3c2=O)cc1OC | inconclusive: 89.1 µM [inhibitor, single point] | – | –
COc1cccc(-c2cc(C(=O)N3CCC(Cn4cccn4)CC3)[nH]n2)c1 | – | inactive: -0.534% | –
COc1ccc(-c2cc(N3CCCN(C(=O)c4ccccc4)CC3)n[nH]2)cc1 | inconclusive: 89.1 µM [inhibitor, single point] | – | –
Cc1ccccc1CCN1CCC(CN(C(=O)c2cnn(C(C)C)c2)C2CCCC2)CC1 | inconclusive: 50.1 µM [inhibitor, partial curve, poor fit] | – | –
O=c1n(-c2ccc(C(F)(F)F)cc2)nc2n1CCN(Cc1ccccn1)C2 | inconclusive: 56.2 µM [inhibitor, partial curve, poor fit] | – | –
O=C(NC1CCCCCC1)C1CCCN(c2ccnc3ccnn23)C1 (stereo not given) | active: 79.4 µM | – | –
O=C(N[C@H]1CO[C@H]2[C@@H]1OC[C@@H]2n1nnnc1Oc1ccccc1)c1ccc(C(F)(F)F)cc1 | inconclusive: 11.2 µM [inhibitor, full curve] | – | –
Cn1ncc2c(C(=O)N3CCC(Cc4ccccc4)CC3)cc(-c3cccc(F)c3)nc21 | inconclusive: 56.2 µM [inhibitor, partial curve, poor fit] | – | –
O=C(Cc1cccc(F)c1)N1CCC[C@H]1c1nc(-c2ccccc2Cl)no1 | inconclusive: 50.1 µM [inhibitor, partial curve, poor fit] | – | –
COc1ccc(CN2CCc3nn(CC4CC4)c(=O)n3CC2)c(Cl)c1OC | inconclusive: 89.1 µM [inhibitor, partial curve, poor fit] | – | –
CCCS(=O)(=O)N1CCCN(CC)C2(CCOCC2)C1 | – | – | inactive
Cc1ccn(CCC(=O)N2CC(=O)N(C3CCCCC3)CC(OCc3ccccc3)C2)n1 (stereo not given) | inconclusive: 79.4 µM [inhibitor, single point] | – | –
CCc1ccccc1CN1CCC2(Cc3ccccc3CNC2=O)C1 (stereo not given) | active: 79.4 µM | – | –
O=C(c1ccccc1F)N1CCCC(c2noc(COc3ccccc3F)n2)C1 (stereo not given) | inconclusive: 89.1 µM [inhibitor, single point] | – | –
